Experimental data reported in paper PMC4336329 (PLoS ONE, 2015).
The whole screen tested about 310,000 compounds, of which about 14,000 (4.5%) showed an effect of 50% or more. Effects have a minus sign here. Some of the results follow.

These compounds were tested against human ether-à-go-go-related gene (hERG) potassium channel (human, UniProt Q12809) (assay: primary screen, population patch clamp on CHO cells stably expressing hERG).
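Also: peak tail current of the secondary pulse compared with the same well before compound.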

human ether-à-go-go-related gene (hERG) potassium channel, sequence (Q12809 whole entry, looked up): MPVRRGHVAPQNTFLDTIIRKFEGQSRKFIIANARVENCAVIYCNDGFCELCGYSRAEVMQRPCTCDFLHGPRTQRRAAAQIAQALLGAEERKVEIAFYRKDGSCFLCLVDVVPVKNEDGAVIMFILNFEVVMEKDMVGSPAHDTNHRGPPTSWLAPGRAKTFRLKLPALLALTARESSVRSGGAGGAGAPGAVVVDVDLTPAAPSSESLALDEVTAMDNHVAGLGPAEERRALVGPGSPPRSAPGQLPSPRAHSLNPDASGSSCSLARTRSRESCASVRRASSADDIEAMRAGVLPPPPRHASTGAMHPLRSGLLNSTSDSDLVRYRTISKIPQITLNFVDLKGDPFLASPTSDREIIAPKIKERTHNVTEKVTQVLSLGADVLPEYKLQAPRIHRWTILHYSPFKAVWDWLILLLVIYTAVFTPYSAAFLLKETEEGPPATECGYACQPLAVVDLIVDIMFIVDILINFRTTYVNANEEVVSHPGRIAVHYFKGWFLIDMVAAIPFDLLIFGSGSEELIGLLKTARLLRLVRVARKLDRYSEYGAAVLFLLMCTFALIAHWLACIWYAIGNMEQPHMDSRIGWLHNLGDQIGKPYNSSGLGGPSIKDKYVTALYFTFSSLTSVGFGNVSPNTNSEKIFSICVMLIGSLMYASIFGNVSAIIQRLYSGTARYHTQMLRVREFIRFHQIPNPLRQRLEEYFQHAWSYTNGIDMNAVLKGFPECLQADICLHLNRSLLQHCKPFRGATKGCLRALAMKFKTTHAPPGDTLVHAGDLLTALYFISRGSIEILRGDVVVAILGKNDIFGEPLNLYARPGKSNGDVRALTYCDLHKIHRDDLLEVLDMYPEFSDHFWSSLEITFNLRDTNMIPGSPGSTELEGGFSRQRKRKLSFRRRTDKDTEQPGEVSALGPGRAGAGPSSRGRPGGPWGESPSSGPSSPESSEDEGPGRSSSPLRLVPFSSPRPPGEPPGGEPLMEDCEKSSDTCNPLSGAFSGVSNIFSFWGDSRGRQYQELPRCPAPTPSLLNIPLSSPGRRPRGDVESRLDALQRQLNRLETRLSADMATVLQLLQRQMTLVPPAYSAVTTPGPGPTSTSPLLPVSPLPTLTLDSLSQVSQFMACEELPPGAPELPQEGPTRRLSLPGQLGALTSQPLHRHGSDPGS

SMILES | hERG current change (%, negative = inhibition) at 10uM [%]
COc1ccc(NC(=O)CSc2nnc(Cc3cccn3C)n2-c2ccc(F)cc2)cc1 | -21.7
CC(C)CC(NC(=O)OC(C)(C)C)C(=O)NCc1ccccc1 (stereo not shown) | 11
O=C(CN1C(=O)S/C(=C\c2ccccc2F)C1=O)NC1CCS(=O)(=O)C1 (stereo not shown) | 13.3
Cc1cc(C(=O)CN2C(=O)NC3(CCCC3)C2=O)c(C)n1-c1ccc2c(c1)OCO2 | -28.5
O=C(NCCNC(=O)c1ccco1)c1ccco1 | 21.4
Cc1ccc(C(=O)CSc2ccc(-c3ccccc3)nn2)cc1 | -3.65
Cc1ccc(S(=O)(=O)c2nc(NCCN(C)C)sc2Cl)cc1 | -69.5
Cc1ccc(C)c(-n2c(CNC(=O)c3ccco3)nnc2SCC(=O)Nc2nccs2)c1 | 7.28
O=S1(=O)CCC(NC(=S)Nc2ccccc2)C1 (stereo not shown) | 3.9
Cc1ccc2c(c1)C(c1ccccc1)NCC(=O)N2 (stereo not shown) | 2.58
COc1cccc(OC)c1NC(=O)Cn1nc(C)c2ccccc2c1=O | 11.4
Nc1ncnc(Oc2ccccc2F)c1[N+](=O)[O-] | 8.42
Cc1cc(C)nc(N2CCC(C(=O)NNC(=O)c3ccc(Cl)cc3)CC2)n1 | 4.45
Cc1cccc(Nc2nnc(SCC(=O)Nc3cccc(S(=O)(=O)N4CCCCC4)c3)s2)c1 | 3.37
CN(C)CCN(C(=O)c1cccc(N2C(=O)CCC2=O)c1)c1nc2ccc(Br)cc2s1.Cl | -48.7
O=C(NCCCN1CCCC1=O)C(=O)NCC1OCCN1S(=O)(=O)c1ccc(Cl)cc1 (stereo not shown) | 5.03
Cc1ccc2c(C)nc(SC(C(=O)c3ccccc3)c3ccccc3)nc2c1 (stereo not shown) | 4.47
Cc1ccc(O)c(NC(=O)CN(C)S(=O)(=O)c2ccc(Cl)cc2)c1 | -14.2
N/C(Cc1cccc2ccccc12)=N\OC(=O)COc1ccccc1 | 4.75
COc1ccccc1C(=O)Nc1ccnn1C1CCN(CCCc2ccccc2)CC1 | -78.3
COc1cccc(C2N(c3cccc(Cl)c3)C(=O)C3CCCN32)c1OC (stereo not shown) | -11.9
Cc1cccc(NC(=O)c2cnc3sccn3c2=O)c1 | 2.35

SMILES | hERG current change (%, negative = inhibition) at 10uM [%]
CC(C)CNC(=O)NC1(C(F)(F)F)Oc2ccccc2O1 | 14.6
CCN1C(=O)[C@@H]2[C@@H](c3ccc(-c4ccc5c(c4)OCO5)cc3)N3CCCC[C@@]3(C(=O)OC)[C@@H]2C1=O.O=C(O)C(F)(F)F | 21
O=C(CCN1C(=O)c2ccccc2C1=O)NC(=S)Nc1cccc(Cl)c1 | -0.748
CC(C)(C)c1ccc(-c2nnc(SCC(=O)Nc3sc4c(c3C#N)CCCC4)o2)cc1 | 8.69
O=C(Nc1cccc(-c2cccc(F)c2)c1)C1CCN(Cc2ccco2)CC1 | -67.5
Cc1cc(O)c(/C=N/Nc2ccccc2)c(=O)o1 | -0.994
Br.CCOc1ccc2c(c1)nc(SCC(=O)c1cccs1)n2C | -5.97
CNc1nccc(-c2ccc(Cl)cc2)c1C#N | -6.14
CCOC(=O)Cc1csc(NC(=O)CSc2nnc(C(C)C)n2C)n1 | -1.3
CSc1ccc(CN2CCN(Cc3ccccc3Cl)CC2)cc1 | -26.8
CN1C(=O)/C(=C\c2cc(N=Nc3ccccc3)ccc2O)SC1=S | 8.36
CCCCCCOC(=O)c1ccc(NC(=O)c2cc(OC)c(OC)c(OC)c2Br)cc1 | 5.84
c1ccc2c(c1)-c1cccc3cccc-2c13 | 24.4
O=C(OCc1nnc(-c2ccccc2)o1)c1cc(=O)c2ccccc2o1 | 14.2
Cc1nn(CCCC(=O)Nc2cc(Oc3ccc(F)cc3)cc([N+](=O)[O-])c2)c(C)c1[N+](=O)[O-] | -7.37
Cc1cc(S(=O)(=O)N2CCCC2)ccc1OCC(=O)NCc1ccco1 | -3.7
Cc1ccc(S(=O)(=O)NC2=NCN(CCc3ccccc3)CN2)cc1 | 9.57
[O-][n+]1ccc(C(O)c2ccccc2)cc1 (stereo not shown) | 28.6
COc1ccc(N2C3=C(C(=O)CC(C)(C)C3)C(c3ccccc3OC)C3=C2CC(C)(C)CC3=O)cc1 | -18.9
CC(=O)c1ccccc1OCC(O)CNC1CCCC1.Cl (stereo not shown) | 9.51
CCNC(=O)NC(=O)C(C)OC(=O)c1c(C)nn(Cc2ccccc2Cl)c1Cl (stereo not shown) | -9.3
O=C(CSc1nc2nn(-c3ccccc3)c(=O)c-2c2n1CCCCC2)Nc1ccc(F)cc1F | -63.2

SMILES | hERG current change (%, negative = inhibition) at 10uM [%]
c1ccc2c(Nc3ccc4c(c3)OCCO4)c3c(nc2c1)CCCC3 | -92.4
COc1ccccc1C(=O)Nc1ccc2c(c1)n(C)c(=O)n2C | 5.85
O=C(NC(=S)Nc1ccc2cn[nH]c2c1)c1ccccc1 | -2.32
COc1ccc(C)cc1NC(=O)NC1CCN(Cc2ccccc2)CC1 | -31.4
Cn1c(=O)c2c(nc(Cc3ccc(N)cc3)n2C)n(C)c1=O | 16.3
CCc1ccc2[nH]c3nc(N/N=C/c4ccc(O)cc4O)nnc3c2c1 | 3.31
Cc1cc(N2CCCC(C(=O)Nc3ccc4c(c3)CCC4)C2)n2ncnc2n1 (stereo not shown) | -57.2
CCn1nc(C)c(NC(=O)CSc2nnc(-c3ccco3)n2C)c1C | 0.23
CC(C)Cn1c(=O)c2sccc2n2c(CCCC(=O)NC3CCN(Cc4ccccc4)CC3)nnc12 | -30.6
C=CCN1C=CC(=CC=C(C#N)C#N)C=C1 | -0.0616
Cc1cc(C)cc(N(CC(=O)Nc2ccccc2C(=O)N2CCOCC2)S(C)(=O)=O)c1 | 0.143
COc1cc(C#N)ccc1OCC(=O)NCCC1=CCCCC1 | -13.2
CC1CCN(C(=S)c2ccc(O)cc2)CC1 | -14.1
O=C(Nc1ccccc1)N1CCCCC1c1cccnc1 (stereo not shown) | -1.03
O=c1[nH]c(CSc2ncc(-c3ccc(F)cc3)n2Cc2ccco2)nc2ccccc12 | -8.9
COc1cccc(C(=O)NCCOc2cc(C)cc(C)c2)c1 | -9.93
O=C1c2ccsc2SCCN1Cc1ccccc1 | -7.08
C/C(=N/NC(=O)OC(C)(C)C)c1ccco1 | 5.72
Cc1ccc(CNCc2cc3c(C(C)(C)C)nn(-c4ccccc4)c3[nH]c2=O)cc1 | -8.46
CCCCn1c(N)c(N(CC(C)C)C(=O)CC2OC(=O)c3ccccc32)c(=O)[nH]c1=O (stereo not shown) | 1.76
CCOC(=O)c1cnc(SC)nc1Oc1cccc(NC(=O)c2ccc(Cl)cc2)c1 | 5.09
O=C(CCNS(=O)(=O)c1ccccc1)OCc1nnc(-c2ccccc2)o1 | 2.89

SMILES | hERG current change (%, negative = inhibition) at 10uM [%]
CC(CC(=O)OCC(=O)NCc1ccc(Cl)cc1)c1ccccc1 (stereo not shown) | -7.65
NC(=O)C1(N2CCCCC2)CCN(C2CC(=O)N(Cc3ccc(N4CCCC4=O)cc3)C2=O)CC1 (stereo not shown) | 5.32
O=S(=O)(NCCC1=CCCCC1)c1cccc(Br)c1 | 5.16
CC1=C(C(=O)OC(C)C)C(c2cccc(F)c2)N2C(=O)C(C)SC2=N1 (stereo not shown) | -0.466
O=C(O)c1ccc(N=Cc2c(O)[nH]c(=O)[nH]c2=O)cc1 | 8.59
O=C(c1cc(Cl)c(=O)n(Cc2ccccc2)c1)N1CCOCC1 | -5.85
COC(=O)c1c(NC(=S)Nc2ccc(C(=O)N3CCOCC3)cc2)sc2c1CCC2 | 12.2
CC(C)(C)NC(=O)NC(=O)COC(=O)C1c2ccccc2Oc2ccccc21 | -13.8
Cc1ccc(O)c(-c2cc(-c3ccccc3F)[nH]n2)c1 | 10.3
O=C(Cc1c(F)cccc1Cl)Nc1ccccc1N1CCCCC1 | 27.5
O=c1[nH]c(NCCO)c(N=Cc2ccccc2)c(=O)[nH]1 | 31.2
COc1ccc(N2C(=O)CCC(C(=O)NCc3ccccn3)C2c2ccc(F)cc2)cc1 (stereo not shown) | 5.29
Cc1ccc(OCC(=O)NCCCNC(=O)c2cccnc2)cc1 | -0.212
CN(c1ccccc1C(=O)N1CCN(Cc2ccc3c(c2)OCO3)CC1)S(C)(=O)=O | 3.14
Nc1nonc1-n1nnc(C(=O)N/N=C/c2ccoc2)c1-c1ccccc1 | 3.2
CCOc1ccc(NC(=O)CCC(=O)N/N=C(\C)c2cccs2)cc1 | 14.3
CCOC(=O)Cc1csc(NC(=O)c2cc3c(s2)CCCC3)n1 | -29.2
CCOC(=O)NC(=O)/C(C#N)=C(/C)N(C)C | 17.3
O=C1CS/C(=C/C(=O)c2ccccc2)N1 | 6.37
CS(=O)(=O)N(Cc1ccc(Cl)cc1)c1ccc(C(=O)Nc2cccnc2)cc1 | -37.4
Cc1nc(NC(=O)C2CC3CCCC(C2)C3=O)sc1C (stereo not shown) | 0.188
Cc1ccc(S(=O)(=O)N2CCOCC2)cc1C(=O)NC1CCCCCC1 | 2.72
